Experiment [1] addresses FLAG-tagged TDP43 (Transactive response DNA-binding protein ~43 kDa) (UniProt Q13148). Description: co-IP; lysates of macrophages infected with lenti-control or lenti-TDP43 (with or without 40 μg/mL oxLDL for 24 h in Figure 3D); precipitated with FLAG antibody and protein A/G agarose at 4°C, western blot. A general note: Immunoblotting shows a protein as a band on a membrane.

Protein sequences, listed by entry. Tags and fused reporters are not part of them.
UniProt Q13148: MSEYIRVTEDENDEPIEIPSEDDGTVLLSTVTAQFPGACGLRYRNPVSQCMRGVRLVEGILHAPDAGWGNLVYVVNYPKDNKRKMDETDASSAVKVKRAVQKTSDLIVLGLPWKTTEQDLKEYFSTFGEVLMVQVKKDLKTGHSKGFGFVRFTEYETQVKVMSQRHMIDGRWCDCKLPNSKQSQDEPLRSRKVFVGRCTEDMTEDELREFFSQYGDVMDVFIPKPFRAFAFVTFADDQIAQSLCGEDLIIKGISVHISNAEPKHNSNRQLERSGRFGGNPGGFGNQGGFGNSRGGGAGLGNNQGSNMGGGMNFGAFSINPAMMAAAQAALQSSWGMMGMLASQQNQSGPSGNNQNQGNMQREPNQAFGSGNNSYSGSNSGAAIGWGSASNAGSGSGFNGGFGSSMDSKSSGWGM
UniProt P35222: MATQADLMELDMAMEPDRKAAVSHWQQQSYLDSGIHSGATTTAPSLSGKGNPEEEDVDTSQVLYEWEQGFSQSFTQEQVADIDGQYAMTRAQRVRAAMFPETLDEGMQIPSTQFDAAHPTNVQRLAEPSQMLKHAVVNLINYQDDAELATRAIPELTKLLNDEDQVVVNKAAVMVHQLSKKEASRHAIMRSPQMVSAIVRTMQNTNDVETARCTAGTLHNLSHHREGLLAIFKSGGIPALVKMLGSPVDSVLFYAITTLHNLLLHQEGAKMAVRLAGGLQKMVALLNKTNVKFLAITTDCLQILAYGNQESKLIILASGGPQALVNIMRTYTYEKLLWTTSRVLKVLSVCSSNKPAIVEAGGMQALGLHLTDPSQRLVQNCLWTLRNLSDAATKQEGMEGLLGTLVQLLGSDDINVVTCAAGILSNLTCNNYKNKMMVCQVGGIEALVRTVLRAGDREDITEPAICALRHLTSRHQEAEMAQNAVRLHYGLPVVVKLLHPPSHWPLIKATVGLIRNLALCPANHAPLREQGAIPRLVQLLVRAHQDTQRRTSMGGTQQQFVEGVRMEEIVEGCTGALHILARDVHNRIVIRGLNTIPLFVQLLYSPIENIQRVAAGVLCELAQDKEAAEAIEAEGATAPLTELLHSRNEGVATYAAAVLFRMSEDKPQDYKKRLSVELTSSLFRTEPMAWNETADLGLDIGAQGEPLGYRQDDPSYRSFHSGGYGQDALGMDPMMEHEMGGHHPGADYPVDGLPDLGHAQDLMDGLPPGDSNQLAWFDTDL
UniProt P37231: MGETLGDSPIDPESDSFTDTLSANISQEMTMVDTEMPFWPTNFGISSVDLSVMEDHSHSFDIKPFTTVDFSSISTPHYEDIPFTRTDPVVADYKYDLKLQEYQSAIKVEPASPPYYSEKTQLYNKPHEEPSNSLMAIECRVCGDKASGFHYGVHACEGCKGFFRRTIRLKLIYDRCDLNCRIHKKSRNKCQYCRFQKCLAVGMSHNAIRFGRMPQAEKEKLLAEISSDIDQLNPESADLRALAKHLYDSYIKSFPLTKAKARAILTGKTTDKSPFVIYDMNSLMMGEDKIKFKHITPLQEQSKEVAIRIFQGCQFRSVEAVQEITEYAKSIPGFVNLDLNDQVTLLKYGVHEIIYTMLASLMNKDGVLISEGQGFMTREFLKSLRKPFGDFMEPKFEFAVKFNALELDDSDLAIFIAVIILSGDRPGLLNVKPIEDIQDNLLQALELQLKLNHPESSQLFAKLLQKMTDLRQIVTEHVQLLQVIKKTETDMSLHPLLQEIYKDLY

Experiment [2] addresses Transactive response DNA-binding protein ~43 kDa (TDP43), endogenous (human (endogenous in THP-1)) (UniProt Q13148). The experiment can be described thus: co-IP; lysates of macrophages treated with or without oxLDL (40 or 60 μg/mL) for 24 h; endogenous TDP43 precipitated with TDP43 antibody and protein A/G agarose at 4°C, western blot.
In experiment [3] the target is β-catenin (human (endogenous in THP-1)) (UniProt P35222). The experiment can be described thus: co-IP; lysates of macrophages infected with lenti-control or lenti-TDP43 for 48 h; endogenous β-catenin and PPAR-γ; the methods list an anti-β-catenin antibody for precipitation; protein A/G agarose at 4°C, western blot.

Results are given in words; binding and its absence hold for the method and conditions named. Binding seen in cells or lysates may run through a third protein. Some entries that bind do so weakly or less than the wild type.

For the substance β-catenin (from UniProt P35222 1-781), the binding result in experiment [1] and in experiment [2] was “binds” in each case.
Regarding “peroxisome proliferator-activated receptor gamma (PPAR-γ) (from UniProt P37231 1-505)”, the binding result is “no binding” in experiment [1], “no binding” in experiment [2] and “binds” in experiment [3].

Source of the values: paper PMC8287832.
